According to PMC4336329 (PLoS ONE, 2015):
Among all 310,000 compounds or so, about 14,000 (4.5%) showed an effect of 50% or more. The effect is printed as a negative number. This is one part of the list.

biological target: human ether-à-go-go-related gene (hERG) potassium channel (human, UniProt Q12809); test: primary screen, population patch clamp on CHO cells stably expressing hERG
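Also: peak tail current of the secondary pulse compared with the same well before compound.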

Sequence of human ether-à-go-go-related gene (hERG) potassium channel (Q12809 whole entry, looked up): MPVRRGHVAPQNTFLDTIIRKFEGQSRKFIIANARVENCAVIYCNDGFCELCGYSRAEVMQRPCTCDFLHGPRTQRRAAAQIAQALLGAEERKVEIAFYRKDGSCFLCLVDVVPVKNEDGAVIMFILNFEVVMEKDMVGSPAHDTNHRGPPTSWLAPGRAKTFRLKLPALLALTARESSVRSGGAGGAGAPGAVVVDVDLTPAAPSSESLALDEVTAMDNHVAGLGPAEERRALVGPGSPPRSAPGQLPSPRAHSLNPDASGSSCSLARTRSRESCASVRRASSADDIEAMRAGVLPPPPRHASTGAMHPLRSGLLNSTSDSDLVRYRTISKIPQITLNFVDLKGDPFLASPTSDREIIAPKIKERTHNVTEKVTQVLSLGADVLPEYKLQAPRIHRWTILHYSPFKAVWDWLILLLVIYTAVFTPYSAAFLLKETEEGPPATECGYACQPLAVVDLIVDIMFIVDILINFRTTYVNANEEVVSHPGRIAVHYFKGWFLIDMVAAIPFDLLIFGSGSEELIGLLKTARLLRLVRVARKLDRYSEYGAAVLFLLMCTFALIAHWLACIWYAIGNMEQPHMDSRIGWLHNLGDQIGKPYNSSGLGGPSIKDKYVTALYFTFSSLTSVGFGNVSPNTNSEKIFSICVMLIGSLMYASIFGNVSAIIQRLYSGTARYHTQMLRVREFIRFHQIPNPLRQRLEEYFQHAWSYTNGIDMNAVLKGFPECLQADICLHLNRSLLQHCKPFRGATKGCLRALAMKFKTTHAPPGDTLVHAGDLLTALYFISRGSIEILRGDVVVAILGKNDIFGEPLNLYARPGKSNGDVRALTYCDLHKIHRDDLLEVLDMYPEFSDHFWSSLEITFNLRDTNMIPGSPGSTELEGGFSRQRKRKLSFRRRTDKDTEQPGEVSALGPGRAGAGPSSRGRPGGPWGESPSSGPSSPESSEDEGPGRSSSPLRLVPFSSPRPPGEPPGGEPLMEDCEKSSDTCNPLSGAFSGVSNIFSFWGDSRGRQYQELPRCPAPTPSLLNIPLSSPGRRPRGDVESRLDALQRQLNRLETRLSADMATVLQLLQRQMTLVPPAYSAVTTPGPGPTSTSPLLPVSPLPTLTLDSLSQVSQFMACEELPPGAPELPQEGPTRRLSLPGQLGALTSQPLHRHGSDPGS

| SMILES | hERG current change (%, negative = inhibition) at 10uM [%] |
| --- | --- |
| Cc1nc(N)nc(-c2ccccc2O)n1 | 19.6 |
| CC1CCCCN1C(=O)COc1ccccc1F (stereo not shown) | 19.9 |
| O=C1COc2ccc(C(=O)c3ccccc3C(=O)NCc3ccco3)cc2N1 | -5.55 |
| COc1cc(OC)cc(C(=O)NC(C(=O)NCCN(C)C)C23CC4CC(CC(C4)C2)C3)c1 (stereo not shown) | -1.16 |
| O=C(C1CC=CCC1)N1CCN(C(=O)C2CC=CCC2)CC1 (stereo not shown) | 7.03 |
| Cc1ccc(N=C2SC(C(=O)Nc3ccc(OC(F)(F)F)cc3)C(N)=C2C(=O)Nc2c(C)cc(C)cc2C)cc1 (stereo not shown) | 3.81 |
| CCc1ccc(OCC(=O)OCC(=O)NCCNC(=O)COC(=O)COc2ccc(CC)cc2)cc1 | 23.8 |
| O=C(Nc1ccc(Nc2ccncc2)cc1)c1ccc(Nc2ccnc3ccc([N+](=O)[O-])cc23)cc1[N+](=O)[O-] | 25.6 |
| COc1ccc(Cc2nnc(NC(=O)C3CCCO3)s2)cc1 (stereo not shown) | 3.44 |
| O=C(NOC(=O)c1ccccc1F)c1ccc(OC(F)F)cc1 | 17.5 |
| C=CCn1c(SCC(=O)Nc2sccc2C(N)=O)nc2ccc(Cl)cc2c1=O | -1.48 |
| N#CCOc1ccc(C2=NO[C@@H]3[C@@H]4C[C@@H]([C@H]5C(=O)N(c6ccc7c(c6)OCO7)C(=O)[C@@H]45)[C@H]23)cc1 | -7.36 |
| CCOC(=O)CC1C(=O)NCCN1C(=O)c1ccc(C)cc1 (stereo not shown) | 14.9 |
| CCSc1ncnc2c1sc1nc3c(cc12)COC(C)(C)C3 | -2.04 |
| Cc1cc(C)nc(NC(=O)CN2C(=O)c3ccccc3S2(=O)=O)n1 | -2.4 |
| Cc1ccc2c(c1)N(CC(=O)N1CCCC1)C(=O)CO2 | 8.11 |
| COCCN(CCOC)C(=O)c1c[nH]c2ccc(S(=O)(=O)N(C)c3ccc(F)cc3)cc2c1=O | -4.82 |
| COc1ccc(CC(=O)Nc2nc3ccc(F)cc3s2)cc1S(=O)(=O)N1CCOCC1 | -19.4 |
| CCOc1cc2c(cc1OC)C(NC(=O)c1ccco1)CC2=O (stereo not shown) | 7.71 |
| CCn1nnc(NC(=O)CSc2ccc(Cl)cc2)n1 | -4.8 |
| O=C(Nc1ccc(N2CCN(C(=O)c3cccs3)CC2)cc1)c1cccc(F)c1 | -62.6 |
| COc1ccc(S(=O)(=O)Nc2ccc(C(N)=O)cc2)cc1C(=O)N1CCCCCC1 | 24.7 |
| O=C(c1ccc(C(F)(F)F)cc1)C1CCCN(C(=O)Cn2cnnn2)C1 (stereo not shown) | -36 |
| CC(NC(=O)C12CC3(C)CC(C)(CC(C)(C3)C1)C2)C(=O)O (stereo not shown) | 7.52 |
| COc1ccc(S(=O)(=O)NC2CCCC2)c(Cl)c1Cl | 7.43 |
| C[C@@H]1CCC[C@H](C)N1NC(=O)c1ccc(Cl)c(S(N)(=O)=O)c1 | 11.1 |
| COc1ccccc1NC(=O)CS(=O)(=O)c1cn(CC(=O)N2CCCC2)c2ccccc12 | -0.692 |
| O=C(Nc1ccc(F)c(F)c1)c1ccc(F)c(S(=O)(=O)N2CCOCC2)c1 | -36.9 |

| SMILES | hERG current change (%, negative = inhibition) at 10uM [%] |
| --- | --- |
| O=c1[nH]cnc2scc(-c3ccc(Br)cc3)c12 | 9.89 |
| O=C(NCc1ccccc1F)c1cccs1 | -5.38 |
| COc1ccc(NC(=O)c2cc([N+](=O)[O-])ccc2N2CCCCC2)cc1 | 4.86 |
| Cc1ccc(S(=O)(=O)NC(C(=O)Oc2ccc3ccc(=O)oc3c2)c2ccccc2)cc1 (stereo not shown) | 6.89 |
| CSc1nnc(Cc2cc(=O)[nH]c(=O)[nH]2)n1-c1cccc(C)c1 | -6.81 |
| COc1ccc(CNC(=O)c2cc3cc(OC)ccc3oc2=O)cc1 | 7.37 |
| O=S(=O)(NCc1csc(-c2cccnc2)n1)c1cccs1 | -3.35 |
| C=Cn1nc(C)c2ccccc2c1=O | 5.68 |
| COCCCNC(=S)Nc1ccccc1C | 22.1 |
| COc1ccc(CN(C)C(=O)CNC(=O)c2ccc(C)cc2)cc1 | 10.4 |
| COC(=O)c1cc(Cl)c(NC(=O)c2cc3ccccc3o2)cc1OC | 7.67 |
| O=C(NC(Nc1nc2ccccc2s1)(C(F)(F)F)C(F)(F)F)c1ccccc1 | 17.5 |
| Cn1c(=O)oc2cc(S(=O)(=O)N3CCCC(C(=O)NCC4COc5ccccc5O4)C3)ccc21 (stereo not shown) | -20 |
| O=C(NC1CCN(C(=S)Nc2ccccc2Cl)CC1)C1CCCCC1 | 14 |
| COc1ccc(Br)cc1C(C[N+](=O)[O-])c1c(N)n(C)c(=O)n(C)c1=O (stereo not shown) | -1.32 |
| CN1CCN(CC#CCOc2ccc(Cl)cc2)CC1.O=C(O)C(=O)O | -0.0359 |
| C/C(N)=C(/C#N)C(=O)COC(=O)CNS(=O)(=O)c1ccc2ccccc2c1 | 5.38 |
| CC(C)c1ccc(C2C(C#N)=C(N)N3C(=C2C#N)Sc2ccccc23)cc1 (stereo not shown) | 10.9 |
| CCC(=O)N/C(N)=N/c1nc(C)c2cc(C)c(C)cc2n1 | 10.6 |
| Cc1cc(S(=O)(=O)N2CCOCC2)ccc1OCC(=O)N1CCCC1 | 22.8 |
| CC(Cc1n[nH]c(=S)n1N)c1ccccc1 (stereo not shown) | 19.8 |
| COc1ccc(/C=C/c2c(-c3ccc(OC)cc3)sc3ccc(N4CCOCC4)cc23)cc1 | 1.1 |
| CCc1ccc(-c2cc(C)no2)cc1S(=O)(=O)NCc1ccccc1OC | -15.8 |
| CC1CCc2nc3ccc(S(=O)(=O)N4CCC(C(=O)O)CC4)cc3c(C(=O)O)c2C1 (stereo not shown) | 16.7 |
| O=C(O)CSCC(=O)Nc1ccc(S(=O)(=O)N2CCCCC2)cc1 | -6.15 |
| CN(C1=NC(=O)C(CC(=O)Nc2ccc(Br)cc2)S1)c1ccc(O)cc1 (stereo not shown) | -18.9 |
| CCOC(=O)c1cnn(-c2ncnc3c2oc2ccccc23)c1N | 5.61 |
